Measurements reported in PMC4336329 (PLoS ONE, 2015).
The whole screen tested about 310,000 compounds, of which about 14,000 (4.5%) showed an effect of 50% or more. Effects have a minus sign here. The list shows a part of the results.

Each compound was assayed against human ether-à-go-go-related gene (hERG) potassium channel (human, UniProt Q12809) (assay: primary screen, population patch clamp on CHO cells stably expressing hERG).
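Note: peak tail current of the secondary pulse compared with the same well before compound.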

Chain of human ether-à-go-go-related gene (hERG) potassium channel (Q12809 whole entry, looked up): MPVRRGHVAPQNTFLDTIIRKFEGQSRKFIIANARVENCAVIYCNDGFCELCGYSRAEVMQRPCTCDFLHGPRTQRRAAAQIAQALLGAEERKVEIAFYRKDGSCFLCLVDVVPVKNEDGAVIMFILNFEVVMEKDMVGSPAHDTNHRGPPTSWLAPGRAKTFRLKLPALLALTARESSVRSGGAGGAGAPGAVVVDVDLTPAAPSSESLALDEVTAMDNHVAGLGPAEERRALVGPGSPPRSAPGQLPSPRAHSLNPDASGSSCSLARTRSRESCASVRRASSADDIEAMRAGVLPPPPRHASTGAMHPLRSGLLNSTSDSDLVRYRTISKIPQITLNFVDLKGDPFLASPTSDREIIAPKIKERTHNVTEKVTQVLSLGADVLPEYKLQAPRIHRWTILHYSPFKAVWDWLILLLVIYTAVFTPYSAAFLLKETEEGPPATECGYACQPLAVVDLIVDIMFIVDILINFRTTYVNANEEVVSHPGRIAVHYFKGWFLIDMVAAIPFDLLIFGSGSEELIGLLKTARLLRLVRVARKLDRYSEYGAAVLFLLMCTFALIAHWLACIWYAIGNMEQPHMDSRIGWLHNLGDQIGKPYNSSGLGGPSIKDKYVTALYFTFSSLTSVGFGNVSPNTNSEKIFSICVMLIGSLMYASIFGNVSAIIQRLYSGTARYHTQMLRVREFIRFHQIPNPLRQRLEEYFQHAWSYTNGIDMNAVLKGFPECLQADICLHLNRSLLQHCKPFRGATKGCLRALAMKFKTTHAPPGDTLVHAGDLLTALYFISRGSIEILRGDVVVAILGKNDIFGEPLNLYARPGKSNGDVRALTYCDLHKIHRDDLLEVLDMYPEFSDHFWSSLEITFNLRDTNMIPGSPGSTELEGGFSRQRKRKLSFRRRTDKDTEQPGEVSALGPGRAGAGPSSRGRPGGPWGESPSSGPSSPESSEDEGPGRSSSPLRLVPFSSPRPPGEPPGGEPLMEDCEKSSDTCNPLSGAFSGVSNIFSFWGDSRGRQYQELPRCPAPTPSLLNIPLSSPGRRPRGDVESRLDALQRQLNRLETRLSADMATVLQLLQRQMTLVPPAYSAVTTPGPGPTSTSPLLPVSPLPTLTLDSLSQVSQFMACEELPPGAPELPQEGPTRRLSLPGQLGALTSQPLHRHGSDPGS

Compound	hERG current change (%, negative = inhibition) at 10uM [%]
CCOc1ccc(Br)cc1C(=O)N/N=C/c1ccccn1	-40.8
Cc1cccc(NC(=O)c2ccc3nc(N4CCOCC4)sc3c2)c1C	-34.7
O=C(NCc1nnc(SCC(=O)N2CCN(c3ccccc3)CC2)o1)c1c(F)cccc1F	5.94
O=C(C1=NN[C@@H]2C(=O)N(c3ccccc3C(F)(F)F)C(=O)[C@H]12)C(c1ccccc1)c1ccccc1	1
CCNc1nc(Cl)nc(N(NC(C)=O)C(C)CC)n1 (stereo not drawn)	14.9
COc1ccc(NC(=O)Cc2c(C(=O)O)n(C)c3ccccc23)cc1OC	15
COC(=O)[C@@]12CCCCN1[C@H](c1ccc(-c3ccc(OC)cc3)cc1)[C@H]1C(=O)N(C)C(=O)[C@H]12.O=C(O)C(F)(F)F	7.9
O=C(Nc1cccc2ccccc12)c1ccc([N+](=O)[O-])cc1	0.571
CCn1nc(NC(=O)C(C)(C)C)c2cc3cccc(C)c3nc21	4.7
CCN(CC)CCn1c2c(c(SCC(=O)Nc3nc4ccccc4s3)nc1=O)CCCC2	-60.2
O=C(c1cccc([N+](=O)[O-])c1)N1CCN(S(=O)(=O)N2CCCCC2)CC1	-15.2
Cc1cc(C)cc(N=C(NO)c2cccc([N+](=O)[O-])c2)c1	4.65
CC(C)c1ccc(NC(=O)c2ccc3snnc3c2)cc1	-0.648
Cn1cccc1Cc1nnc(SCC(=O)Nc2nc3ccccc3s2)n1CCc1ccccc1	8.09
Brc1ccc(-c2csc(Nc3nc(-c4ccc(Br)cc4)cs3)n2)cc1	15
Cc1cnc(NC(=O)CSc2ccccc2)s1	3.88
COc1cccc(Oc2coc3c(CN4CCOCC4)c(O)ccc3c2=O)c1	-5.65
C=CCn1c(CNc2ccc(C)cc2)nnc1SCC(=O)N/N=C/c1ccc(O)cc1	-11.4
Cc1ccc(C2CC(C(F)(F)F)n3nc(C(=O)NCc4ccco4)cc3N2)cc1 (stereo not drawn)	19
COC(=O)c1c(C)[nH]c(C(=O)OCC(=O)NCC(C)C)c1C	3.37
CS(=O)(=O)Nc1cccc(-c2cn3ccccc3n2)c1	-3.21

Compound	hERG current change (%, negative = inhibition) at 10uM [%]
CCO[C@@H]1OC(C(=O)Nc2ccccc2)=C[C@H](C2CC2)[C@H]1CCCO	-10.4
Cc1nc2ccc(NC(=O)CCC3CCCC3)cc2s1	-21.3
O=C(Nc1ccc2c(c1)C(=O)N(c1ccccc1)C2=O)C1CCCO1 (stereo not drawn)	-15.5
Cc1oc(-c2ccccc2F)nc1CS(=O)(=O)CC(=O)N1CCN(Cc2ccccc2)CC1	-3.31
COc1cccc(-c2nc(CS(=O)(=O)CC(=O)NCc3ccc4c(c3)OCO4)c(C)o2)c1	-11.1
Cc1ccc(NC(=O)CN2C(=O)S/C(=C\c3cccn3C)C2=O)cc1	1.22
COc1ccc(-c2ccc3c(N)c(C(=O)c4cccc(OC)c4)sc3n2)cc1	-0.00592
O=C(Cc1ccccc1)Nc1ccc2[nH]ncc2c1	21.6
Cc1cccc(OCC(=O)NC2CC(C)(C)NC(C)(C)C2)c1	-31.1
COc1ccc(OC)c(NC(=O)CCNS(=O)(=O)c2cc(Br)cnc2N)c1	-14.9
CC(C)=CCC12Oc3cc(O)ccc3C1(O)Oc1cc(O)c([C@H]3C=C(C)CC(c4ccc(O)cc4O)[C@H]3C(=O)c3ccc(O)cc3O)c(O)c1C2=O (stereo partly drawn)	-5.25
O=C(O)/C(=C\c1ccco1)NC(=O)c1ccccc1	15.9
CCC1(C)CC2(CCCN(CCC(=O)c3ccccc3)C2)CCO1.Cl (stereo not drawn)	-10.3
COc1ccccc1NC(=O)COc1ccc(/C=N/NC(=O)c2cccnc2)cc1	16.6
COCCNC(=O)C1CCCN(c2nn3c(=O)cc(C)nc3s2)C1 (stereo not drawn)	-0.14
O=S(=O)(Nc1ccncc1)c1cc(Cl)ccc1Cl	17.1
COc1ccc2oc(=O)c(-c3ccccc3C(=O)N3CCOCC3)cc2c1	-15.8
O=C(c1csc2c1CCCCC2)N1CCC2(CC1)OCCO2	9.29
O=C(CN1C(=O)NC2(CCCC2)C1=O)Nc1ccc(C(F)(F)F)cc1	7.98
COc1ccc(CN([C@H](C)CO)S(=O)(=O)N(Cc2ccccc2)[C@H](CO)C(C)C)cc1	-4.22
Cc1ccc(C)n1-c1ccccc1N1CCCCC1	10.4

Compound	hERG current change (%, negative = inhibition) at 10uM [%]
O=C(NC1CC2CCCC(C1)N2C(=O)Nc1ccccc1)c1ccncc1 (stereo not drawn)	0.052
CC(C)C[C@H]1CN=C(Nc2ccccc2)N1CC1CCCCCC1	-60.6
CCOC(=O)c1ccc2ncc(C(=O)OCC)c(NCCCN3CCOCC3)c2c1	-47.3
COc1ccc(-n2nc(C(=O)NCC(=O)Nc3cc(Cl)c(OC)cc3OC)c3ccccc3c2=O)cc1	4.89
COc1ccc(CCC(=O)Nc2ccc(Cn3ccnc3)cc2)cc1	-0.642
COC(=O)c1cc(S(=O)(=O)n2nc(C)cc2C)c(Cl)cc1Cl	8.81
COc1ccc(C(=O)CCN2CCc3cc(OC)c(OC)cc3C2)cc1.Cl	-69.1
O=C(CCN1C(=O)S/C(=C\c2cccs2)C1=O)Nc1nccs1	9.41
Cc1ccc(S(=O)(=O)N2CCCC2C(=O)Oc2ccccc2)cc1 (stereo not drawn)	-4.02
NC(=O)CCC(NS(=O)(=O)c1ccc(Cl)cc1)C(=O)NCc1ccccc1 (stereo not drawn)	-11.5
CCOC(=O)C1=C(N)n2c(s/c(=C\c3ccco3)c2=O)=C(C(=O)OC(C)C)C1c1ccco1 (stereo not drawn)	3.99
CCCn1c(=O)[nH]c(=O)c2c1nc(-c1ccc(OC)c(Br)c1)n2CCOC	-20.1
S=C(Nc1ccc(Br)cc1)NC1CCN(Cc2ccccc2)CC1	-33
COc1ccc(NC(=O)CNC(=O)c2ccc([N+](=O)[O-])cc2)cc1	-13.7
COc1ccc(N(C(=O)CCC(=O)Nc2cc(C)on2)C(C(=O)NC2CCCC2)c2ccco2)cc1 (stereo not drawn)	5.34
CCOCCn1c(SCc2ccc(C)cc2)nc2c1c(=O)[nH]c(=O)n2C	14.5
O=C(N/N=C/c1ccc(N2CCOCC2)cc1)C1CC1	1.13
Cc1ccc(C)c(-c2nnc(NC(=O)c3ccco3)o2)c1	-2.48
OC(c1ccccc1)c1cccnc1 (stereo not drawn)	17.7
CCOC(=O)c1ccc(NC(=O)c2ccc(NC(=O)C3CCCO3)cc2)cc1 (stereo not drawn)	17
CCOc1ccc2[nH]c(=O)c(CN(CCO)C(=O)c3ccc(Br)cc3)cc2c1	-3.2

Compound	hERG current change (%, negative = inhibition) at 10uM [%]
CN(CC(=O)Nc1cccc(F)c1)C(=O)c1cccc2ccccc12	-2.09
Cc1oc(-c2ccccc2)nc1CS(=O)CC(=O)NC1CCCC1 (stereo not drawn)	8.65
OC(CNCCC1C=Nc2ccccc21)Cn1c2ccc(Cl)cc2c2cc(Cl)ccc21 (stereo not drawn)	0.87
CCOc1cc(/C=C2/NC(=O)NC2=O)cc(Br)c1OCc1ccc(C(=O)O)cc1	2.95
CC(=O)N/N=C/c1cc(C)n(-c2ccc(Br)cc2)c1C	-19.1
CC(/C=C1\SC(=S)N(NC(=O)c2ccc(C)cc2)C1=O)=C\c1ccccc1	6.71
CCC(=O)Nc1cccc(C(=O)c2ccc(C)c(C)c2)c1	-11.6
COC(=O)CCCC1=CC2=C(c3ccccc3)C(=O)C(C)(OC(=O)C3CCCC3)C(=O)C2=CN1CCc1c[nH]c2ccccc12 (stereo not drawn)	3.36
CCc1ccc(CNC(=O)c2ccc(OC)c(OC3CCN(C(C)C)CC3)c2)nc1	-7.31
Cc1ccc(NC(=O)C2COc3ccccc3O2)c(C)c1 (stereo not drawn)	14.2
Cc1c(Cl)cccc1NC(=O)C(=O)NNS(=O)(=O)c1ccc(F)cc1	10.9
O=S(=O)(c1cc(F)ccc1F)N1CCC2(CC1)OCCN2S(=O)(=O)c1cccs1	-12.7
COC(=O)c1ccc(COc2ccc(/C=N/NC(=O)C(=O)Nc3ccc(OC)cc3)cc2OC)o1	8.1
CN(C)c1ccc(/C=N\NC(=O)c2ccc(Cn3cc(Cl)cn3)cc2)cc1	-1.4
COc1cc(OC)c(NS(=O)(=O)c2c(C)[nH]c(=O)[nH]c2=O)cc1Cl	20
COc1ccccc1NC(=O)COC(=O)COc1ccccc1F	-0.741
Cc1ccccc1CC1(CO)CCCN(C(=O)c2cc(Cl)ccc2F)C1 (stereo not drawn)	-16.5
COCCCn1c(-c2ccccc2Cl)n[nH]c1=S	19.5
COc1ccccc1NC(=O)NC1CC(=O)N(c2ccc3c(c2)OCCO3)C1 (stereo not drawn)	-9.02
Cc1ccc(S(=O)(=O)Nc2ccnc3ccccc23)cc1	-4.28
CCCCn1c(N)c(Sc2ccc(Cl)cc2)c(=O)[nH]c1=O	-18.8
